Out of some 230,000 compounds screened, about 3,600 (1.6%) were called active. Inconclusive results, whose numbers are uncertain, are shown with a selection of clear calls. Calls follow the shape of the dose curve; as a rule, active = well fitted inhibition curve with a large enough effect (not every such curve was filed as active); inconclusive = small, poorly fitted or top-dose-only effect, or another doubt; inactive = no such curve, though single readings can be large or run the other way. Potencies beside an inconclusive call are fits to weak or partial responses and may not hold up.
These compounds were tested against Lysine-specific demethylase 4E (Homo sapiens) (UniProt B2RXH2) (assay: qHTS Assay for Inhibitors of Human Jumonji Domain Containing 2E (JMJD2E)). Details: JMJD2E catalytic domain, FDH-coupled NADH fluorescence (FDH is formaldehyde dehydrogenase); series mostly up to 57.1 µM; activity change, negative = inhibition: at the top concentration.
UniProt B2RXH2, sequence (B2RXH2 whole entry, looked up, the tested form may be a part): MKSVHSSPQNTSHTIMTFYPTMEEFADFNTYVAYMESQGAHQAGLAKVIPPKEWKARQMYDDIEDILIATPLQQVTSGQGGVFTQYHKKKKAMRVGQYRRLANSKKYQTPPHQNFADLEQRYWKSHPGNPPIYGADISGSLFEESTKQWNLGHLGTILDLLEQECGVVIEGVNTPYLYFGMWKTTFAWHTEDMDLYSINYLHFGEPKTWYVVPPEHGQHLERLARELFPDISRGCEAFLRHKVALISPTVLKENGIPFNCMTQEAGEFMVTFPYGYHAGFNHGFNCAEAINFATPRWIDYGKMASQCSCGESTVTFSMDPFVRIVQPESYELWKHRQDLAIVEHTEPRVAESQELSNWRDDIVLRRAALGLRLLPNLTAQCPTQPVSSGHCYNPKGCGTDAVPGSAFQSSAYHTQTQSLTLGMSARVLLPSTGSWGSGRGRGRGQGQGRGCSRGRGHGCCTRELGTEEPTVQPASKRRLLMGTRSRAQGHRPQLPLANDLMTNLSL
Also: nearly all actives have a fitted effect of over 50% in size.
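For activity change, negative = inhibition in this document: 0% = wells with enzyme and -100% = buffer wells without enzyme.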
Potency is read from the fitted curve at half-maximal effect; tags tell the direction and shape of the fitted curve.

Compound	Potency	activity change, negative = inhibition
O=C1NCCc2cc3c(cc21)OCO3	inconclusive: 31.6 µM [inhibitor, partial curve]	–
Cc1ccc(-c2csc3nc(C)n(N)c(=O)c23)o1	–	inactive: -6.7%
COc1cc2c(C(=O)O)c(C)n(-c3ccccc3)c2c2ccccc12	inconclusive: 28.2 µM [inhibitor, partial curve]	–
COc1ccccc1CNCC(O)Cn1c2ccccc2c2ccccc21 (stereo not given)	–	inactive: 8.57%
O=c1oc2ccccc2c(NCc2ccccc2)c1[N+](=O)[O-]	–	inactive: 0.103%
CN=C1SC(CC(=O)Nc2ccc(N3CCOCC3)cc2)C(=O)N1C (stereo not given)	inconclusive: 39.8 µM [inhibitor, single point]	–
Cn1c(=O)cc(OCCCC(=O)NCc2ccco2)c2ccccc21	–	inactive: -3.69%
O=C(Nc1nc(-c2ccccn2)cs1)c1cccc(-n2cnnn2)c1	inconclusive: 39.8 µM [inhibitor, single point]	–
COc1ccc2cc(CN(CCc3ccccc3)Cc3nnnn3CC3CCCO3)c(=O)[nH]c2c1 (stereo not given)	inconclusive: 28.2 µM [inhibitor, partial curve]	–
CCSc1n[nH]c(=S)s1	active: 25.1 µM	–
Cc1ccc(O)c(NC(=O)c2noc3c2CCc2ccccc2-3)c1	inconclusive: 39.8 µM [inhibitor, single point]	–
Cc1ccc(-c2[nH]ncc2CNCCc2cnn(-c3ccccc3)c2)cc1C	–	inactive: 0.464%
O=C(Cn1nnc(-c2ccccc2)n1)N/N=C/c1cccc([N+](=O)[O-])c1	–	inactive: 9.84%
COc1ccc(-c2ccc(OC)c([C@H]3[C@H]4C=CC[C@@H](C)[C@@H]4C(=O)N3Cc3ccccc3)c2)cc1OC	inconclusive: 35.5 µM [inhibitor, single point]	–
O=c1nc(/C=C/c2ccc(O)c(O)c2)oc2ccccc12	active: 12.6 µM	–
CCOCCCNC(=O)C(c1ccc(OC)cc1)N(Cc1cccs1)C(=O)CNC(C)=O (stereo not given)	–	inactive: -8.72%
c1ccc(OCCCn2nnc(-c3ccc(N4CCOCC4)cc3)n2)cc1	inconclusive: 39.8 µM [inhibitor, single point]	–
CN(C)C(CNC(=O)Cc1cccc(C(F)(F)F)c1)c1ccco1 (stereo not given)	inconclusive: 28.2 µM [inhibitor, single point]	–
CCN(C(=O)COC(=O)c1ccc(Cl)c(N)c1)C1CCS(=O)(=O)C1 (stereo not given)	inconclusive: 25.1 µM [inhibitor, partial curve]	–
CCCCN=Cc1sc2ccc(OCC)cc2c1O	inconclusive: 22.4 µM [inhibitor, partial curve]	–
CCc1ccc(Oc2coc3cc(OC(=O)c4cc5ccccc5oc4=O)ccc3c2=O)cc1	inconclusive: 28.2 µM [inhibitor, partial curve]	–
CC(=O)c1ccc(Oc2cc(C(F)(F)F)cnc2C(N)=O)cc1	inconclusive: 31.6 µM [inhibitor, single point]	–
COc1ccccc1C(=O)Nc1ccc2oc(-c3ccc(F)cc3)nc2c1	inconclusive: 35.5 µM [inhibitor, partial curve]	–

Compound	Potency	activity change, negative = inhibition
Cc1ccc(O)c(C(=O)CC(=O)c2cccc(F)c2)c1	inconclusive: 35.5 µM [inhibitor, single point]	–
COc1ccc(C2C=C(Nc3ccccc3)C(=O)N2c2ccccc2)cc1OC (stereo not given)	inconclusive: 22.4 µM [inhibitor, partial curve]	–
CC(=O)N1N=C(c2ccc(Cl)cc2)OC1c1ccc(C(C)C)cc1 (stereo not given)	inconclusive: 31.6 µM [inhibitor, single point]	–
CCCc1c2ccccc2nc2ccccc12	inconclusive: 31.6 µM [inhibitor, partial curve]	–
CC(C)(C)C1CCc2c(sc3ncn(N)c(=N)c23)C1 (stereo not given)	inconclusive: 7.08 µM [inhibitor, single point]	–
Cc1ccc(C(=O)O/N=C/c2ccc3c(c2)OCO3)cc1	inconclusive: 39.8 µM [inhibitor, single point]	–
CC1CCN(c2[nH]c(=S)c(C#N)c3c2CCCC3)CC1	inconclusive: 39.8 µM [inhibitor, single point]	–
CCCn1c(SCC(=O)NC23CC4CC(CC(C4)C2)C3)n[nH]c1=O	inconclusive: 39.8 µM [inhibitor, single point]	–
CC1(C)Cc2c(sc(NC(=O)c3ccc(Br)o3)c2C#N)CO1	inconclusive: 39.8 µM [inhibitor, single point]	–
Cc1ccc(CNC(=O)/C=C/c2ccc(Br)o2)cc1	inconclusive: 39.8 µM [inhibitor, single point]	–
CN1CCN(c2oc(-c3ccco3)nc2S(=O)(=O)c2ccccc2)CC1	–	inactive: -8.8%
CC(C)Sc1nc(N)c2c3c(sc2n1)CN(C)CC3	inconclusive: 28.2 µM [inhibitor, partial curve]	–
O=C(CC(NC(=O)c1ccccc1Cl)c1ccccc1)NCCc1ccc(Cl)cc1 (stereo not given)	–	inactive: 9.26%
NC(=S)Nc1cc2ccccc2c2ccccc12	inconclusive: 39.8 µM [inhibitor, single point]	–
Oc1c(Br)cc(/C=N/NC(=S)NCC2CCCO2)cc1Br (stereo not given)	inconclusive: 35.5 µM [inhibitor, partial curve]	–
O=c1cc(C(F)(F)F)oc2c1ccc1ccccc12	inconclusive: 28.2 µM [inhibitor, partial curve]	–
CC(C)OCCCNC(=S)Nc1ccc2nc3n(c(=O)c2c1)CCCCC3	inconclusive: 28.2 µM [inhibitor, single point]	–
CCOc1ccc(N(Cc2cc3ccc(C)cc3[nH]c2=O)S(C)(=O)=O)cc1	inconclusive: 28.2 µM [inhibitor, single point]	–
COc1ccc(-c2cc3nc4c(c(=O)n3[nH]2)CCC4)cc1	inconclusive: 25.1 µM [inhibitor, partial curve]	–
COCCNC(=O)c1c[nH]c2ccc(S(=O)(=O)N3CCC4(CC3)OCCO4)cc2c1=O	inconclusive: 31.6 µM [inhibitor, single point]	–
Cc1ccsc1/C=N/n1c(-c2ccncc2)n[nH]c1=S	inconclusive: 39.8 µM [inhibitor, single point]	–
O=C1C2C3C=CC(C3)C2C(=O)N1CCCCN1C(=O)C2C3C=CC(C3)C2C1=O (stereo not given)	–	inactive: -10.7%

— PubChem BioAssay AID2147 (National Center for Advancing Translational Sciences (NCATS), 2009)
